Reference: the supplement of paper PMC7125110
± gives the standard error. This sample is rich in variants without activity.

B1: glmS ribozyme (parent)
chain: AUAAAAGCGCCAGAACUACAGAAAUGUAGUUGACGAGGAGGAGGUUUAUCGAAUUUUCGGCGGAUGCCUCCAAA

Tests used:
Settings in all cases: with glucosamine-6-phosphate
glucosamine-6-phosphate [1] = variants of: B1; assay: self-cleavage kobs at 40 uM GlcN6P; higher = faster cleavage; RNA array
Method in brief: (§1)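 Ribozyme variants carrying barcodes were transcribed in situ on sequenced MiSeq chips by E. coli RNA polymerase and tracked at 37 °C with a hybridised Cy3 probe. They were exposed to 40 μM to 10 mM glucosamine-6-phosphate in HEPES/KCl/Mg(OAc)2 buffer. kobs came from exponential decay fits of normalised per-tile medians, and kcat and KM from weighted Michaelis–Menten fits.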

glucosamine-6-phosphate [2] = variants of: B1; assay: self-cleavage kobs at 160 uM GlcN6P; higher = faster cleavage; RNA array
Method in brief: as §1

glucosamine-6-phosphate [3] = variants of: B1; assay: self-cleavage kobs at 2500 uM GlcN6P; higher = faster cleavage; RNA array
Method in brief: as §1

glucosamine-6-phosphate [4] = variants of: B1; assay: self-cleavage kobs at 10000 uM GlcN6P; higher = faster cleavage; RNA array
Method in brief: as §1

glucosamine-6-phosphate [5] = variants of: B1; assay: self-cleavage kobs at 640 uM GlcN6P; higher = faster cleavage; RNA array
Method in brief: as §1

Variant | self-cleavage kobs at 40 uM GlcN6P (glucosamine-6-phosphate [1]) [s⁻¹] | self-cleavage kobs at 160 uM GlcN6P (glucosamine-6-phosphate [2]) [s⁻¹] | self-cleavage kobs at 2500 uM GlcN6P (glucosamine-6-phosphate [3]) [s⁻¹] | self-cleavage kobs at 10000 uM GlcN6P (glucosamine-6-phosphate [4]) [s⁻¹] | self-cleavage kobs at 640 uM GlcN6P (glucosamine-6-phosphate [5]) [s⁻¹]
AUAAAAGCGCCAGAACUACAGAAAUGUAGUUGACGAGGAGGCGGUUUAUCGAAUUUUCGGCGGAUGUCUCCAAA [A42C C67U] | < 1e-05 | < 1e-05 |  |  | 
AUAAAAGCGCCAGAACUACAGAAAUGUAGUUGACGAGGAGGCGGUUUAUCGAAUUUUCGGCGGAUGCUUUCAAA [A42C C68U C70U] | < 1e-05 |  |  |  | 
AUAAAAGCGCCAGAACUACAGAAAUGUAGUUGACGAGGAGGCGGUUUAUCGAAUUUUCGGCGGAUGCCUUCAAA [A42C C70U] | < 1e-05 |  |  |  | 
AUAAAAGCGCCAGAACUACAGAAAUGUAGUUGACGAGGAGGCGGUUUAUCGAAUUUUCGGCGGAUGCCUCAAAA [A42C C71A] | < 1e-05 | < 1e-05 | < 1e-05 | < 1e-05 | 
AUAAAAGCGCCAGAACUACAGAAAUGUAGUUGACGAGGAGGCGGUUUAUCGAAUUUUCGGCGGAUGCCUCUAAA [A42C C71U] | < 1e-05 | < 1e-05 |  |  | < 1e-05
AUAAAAGCGCCAGAACUACAGAAAUGUAGUUGACGAGGAGGCGGUUUAUCGAAUUUUCCGCGGAUGCCUCCAAA [A42C G59C] | < 1e-05 |  |  |  | 
AUAAAAGCGCCAGAACUACAGAAAUGUAGUUGACGAGGAGGCGGUUUAUCGAAUUUUCGGCGCAUGCCUCCAAA [A42C G63C] | < 1e-05 | < 1e-05 | < 1e-05 | < 1e-05 | < 1e-05
AUAAAAGCGCCAGAACUACAGAAAUGUAGUUGACGAGGAGGCGGUUUAUCGAAUUUUCGGCGGAUCCCUCCAAA [A42C G66C] | < 1e-05 | < 1e-05 | < 1e-05 | < 1e-05 | < 1e-05
AUAAAAGCGCCAGAACUACAGAAAUGUAGUUGACGAGGAGGCGGUUUAGCGAAUUUUCGGCGGAUGCCUCCAAA [A42C U49G] | < 1e-05 |  |  | < 1e-05 | 
AUAAAAGCGCCAGAACUACAGAAAUGUAGUUGACGAGGAGGCGGUUUAUCGAAUAUUCGGCGGAUGCCUCCAAA [A42C U55A] | < 1e-05 |  |  |  | 
AUAAAAGCGCCAGAACUACAGAAAUGUAGUUGACGAGGAGGCGGUUUAUCGAAUAUUCGGCGGAUGCCUCAAAA [A42C U55A C71A] | < 1e-05 |  |  | < 1e-05 | 
AUAAAAGCGCCAGAACUACAGAAAUGUAGUUGACGAGGAGGCGGUUUAUCGAAUCUUCGGCGGAUGCCUCCAAA [A42C U55C] | < 1e-05 |  |  |  | 
AUAAAAGCGCCAGAACUACAGAAAUGUAGUUGACGAGGAGGCGGUUUAUCGAAUUAUCGGCGGAUGCCUCCAAA [A42C U56A] | < 1e-05 |  |  |  | < 1e-05
AUAAAAGCGCCAGAACUACAGAAAUGUAGUUGACGAGGAGGGGGUUUUUCGAAUUUUCGGCGGAUGCCUCGAAA [A42G A48U C71G] | < 1e-05 |  |  |  | 
AUAAAAGCGCCAGAACUACAGAAAUGUAGUUGACGAGGAGGGGGUUUAUCGUAUUUUCGGCGGAUGCCUCCAAA [A42G A52U] | < 1e-05 |  |  |  | 
AUAAAAGCGCCAGAACUACAGAAAUGUAGUUGACGAGGAGGGGGUUUAUCGUAUUUUCGGCGGAUGCCUACAAA [A42G A52U C70A] | < 1e-05 | < 1e-05 |  |  | 
AUAAAAGCGCCAGAACUACAGAAAUGUAGUUGACGAGGAGGGGGUUUAUAGAAUUUUCGGCGGAUGCCUCCAAA [A42G C50A] | < 1e-05 |  |  |  | 
AUAAAAGCGCCAGAACUACAGAAAUGUAGUUGACGAGGAGGGGGUUUAUUGAAUUUUCGGCGGAUGCCUCCAAA [A42G C50U] | < 1e-05 |  | 3.96e-05 ± 1.9e-05 | 8.57e-05 ± 1.3e-05 | 
